# According to the supplement of paper PMC8728848:
# The other results are listed elsewhere or left out.
# B1: Cohesin-hDC-ASGPR (Homo sapiens) (protein)
# chain: LDDLDAVRIKVDTVNAKPGDTVRIPVRFSGIPSKGIANCDFVYSYDPNVLEIIEIEPGDIIVDPNPDKSFDTAVYPDRKIIVFLFAEDSGTGAYAITKDGVFATIVAKVKEGAPNGLSVIKFVEVGGFANNDLVEQKTQFFDGGANVGDTTEPATPTTPVTTPTTTDDLDAASQNSKFQRDLVTLRTDFSNFTSNTVAEIQALTSQGSSLEETIASLKAEVEGFKQERQAGVSELQEHTTQKAHLGHCPHCPSVCVPVHSEMLLRVQQLVQDLKKLTCQVATLNNNASTEGTCCPVNWVEHQDSCYWFSHSGMSWAEAEKYCQLKNAHLVVINSREEQNFVQKYLGSAYTWMGLSDPEGAWKWVDGTDYATGFQNWKPGQPDDWQGHGLGGGEDCAHFHPDGRWNDDVCQRPYHWVCEAGLGQTSQESHHHHHH
# Tests used:
# Experiment in all cases: glycan array binding signal (z-score within array); higher = stronger binding
# Conditions in all cases: glycan notation: IUPAC condensed, linker removed
# [1] = molecular target: Fuc(a1-2)Gal6S(b1-3)GlcNAc6S
# Summary of the method: (§1)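 Glycan array binding is given as a within-array Z-score, which can be read as non-binding when negative. The arrays, 3228 of them, came from the Consortium for Functional Glycomics database and were retained only where the protein sequence was available. Z-scores were averaged across arrays of the same protein sequence at different concentrations or buffers and across linkers.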
# [2] = molecular target: Fuc(a1-2)Gal6S(b1-4)Glc
# Summary of the method: as §1
# [3] = molecular target: Fuc(a1-2)Gal6S(b1-4)Glc6S
# Summary of the method: as §1
# [4] = molecular target: Fuc(a1-2)[Gal(a1-3)]Gal
# Summary of the method: as §1
# [5] = molecular target: Fuc(a1-2)[Gal(a1-3)]Gal(b1-3)GalNAc
# Summary of the method: as §1
# [6] = molecular target: Fuc(a1-2)[Gal(a1-3)]Gal(b1-3)GalNAc(b1-3)Gal(a1-4)Gal(b1-4)Glc
# Summary of the method: as §1
# [7] = molecular target: Fuc(a1-2)[Gal(a1-3)]Gal(b1-3)GlcNAc
# Summary of the method: as §1
# [8] = molecular target: Fuc(a1-2)[Gal(a1-3)]Gal(b1-3)GlcNAc(b1-2)Man(a1-3)[Fuc(a1-2)[Gal(a1-3)]Gal(b1-3)GlcNAc(b1-2)Man(a1-6)]Man(b1-4)GlcNAc(b1-4)GlcNAc
# Summary of the method: as §1
# [9] = molecular target: Fuc(a1-2)[Gal(a1-3)]Gal(b1-3)GlcNAc(b1-2)Man(a1-3)[Fuc(a1-2)[Gal(a1-3)]Gal(b1-3)GlcNAc(b1-2)Man(a1-6)]Man(b1-4)GlcNAc(b1-4)[Fuc(a1-6)]GlcNAc
# Summary of the method: as §1
# [10] = molecular target: Fuc(a1-2)[Gal(a1-3)]Gal(b1-3)GlcNAc(b1-3)GalNAc
# Summary of the method: as §1
# [11] = molecular target: Fuc(a1-2)[Gal(a1-3)]Gal(b1-3)GlcNAc(b1-6)GalNAc
# Summary of the method: as §1
# [12] = molecular target: Fuc(a1-2)[Gal(a1-3)]Gal(b1-4)Glc
# Summary of the method: as §1
# [13] = molecular target: Fuc(a1-2)[Gal(a1-3)]Gal(b1-4)GlcNAc
# Summary of the method: as §1
# [14] = molecular target: Fuc(a1-2)[Gal(a1-3)]Gal(b1-4)GlcNAc(b1-2)Man
# Summary of the method: as §1
# [15] = molecular target: Fuc(a1-2)[Gal(a1-3)]Gal(b1-4)GlcNAc(b1-2)Man(a1-3)[Fuc(a1-2)[Gal(a1-3)]Gal(b1-4)GlcNAc(b1-2)Man(a1-6)]Man(b1-4)GlcNAc(b1-4)GlcNAc
# Summary of the method: as §1
# [16] = molecular target: Fuc(a1-2)[Gal(a1-3)]Gal(b1-4)GlcNAc(b1-2)Man(a1-3)[Fuc(a1-2)[Gal(a1-3)]Gal(b1-4)GlcNAc(b1-2)Man(a1-6)]Man(b1-4)GlcNAc(b1-4)[Fuc(a1-6)]GlcNAc
# Summary of the method: as §1
# [17] = molecular target: Fuc(a1-2)[Gal(a1-3)]Gal(b1-4)GlcNAc(b1-3)GalNAc
# Summary of the method: as §1
# [18] = molecular target: Fuc(a1-2)[Gal(a1-3)]Gal(b1-4)GlcNAc(b1-3)[Fuc(a1-2)[Gal(a1-3)]Gal(b1-4)GlcNAc(b1-6)]GalNAc
# Summary of the method: as §1
# [19] = molecular target: Fuc(a1-2)[Gal(a1-3)]Gal(b1-4)GlcNAc(b1-6)GalNAc
# Summary of the method: as §1
# [20] = molecular target: Fuc(a1-2)[Gal(a1-3)]Gal(b1-4)[Fuc(a1-3)]Glc
# Summary of the method: as §1
# [21] = molecular target: Fuc(a1-2)[Gal(a1-3)]Gal(b1-4)[Fuc(a1-3)]GlcNAc
# Summary of the method: as §1
# [22] = molecular target: Fuc(a1-2)[Gal(a1-3)]Gal(b1-4)[Fuc(a1-3)]GlcNAc(b1-3)GalNAc
# Summary of the method: as §1
# [23] = molecular target: Fuc(a1-2)[Gal(a1-4)]Gal(b1-4)GlcNAc
# Summary of the method: as §1
# [24] = molecular target: Fuc(a1-2)[GalNAc(a1-3)]Gal
# Summary of the method: as §1
# [25] = molecular target: Fuc(a1-2)[GalNAc(a1-3)]Gal(b1-3)GalNAc(a1-3)[Fuc(a1-2)]Gal(b1-4)GlcNAc
# Summary of the method: as §1
# [26] = molecular target: Fuc(a1-2)[GalNAc(a1-3)]Gal(b1-3)GalNAc(b1-3)Gal(a1-4)Gal(b1-4)Glc
# Summary of the method: as §1
# [27] = molecular target: Fuc(a1-2)[GalNAc(a1-3)]Gal(b1-3)GlcNAc
# Summary of the method: as §1
# [28] = molecular target: Fuc(a1-2)[GalNAc(a1-3)]Gal(b1-3)GlcNAc(b1-2)Man(a1-3)[Fuc(a1-2)[GalNAc(a1-3)]Gal(b1-3)GlcNAc(b1-2)Man(a1-6)]Man(b1-4)GlcNAc(b1-4)GlcNAc
# Summary of the method: as §1
# [29] = molecular target: Fuc(a1-2)[GalNAc(a1-3)]Gal(b1-3)GlcNAc(b1-2)Man(a1-3)[Fuc(a1-2)[GalNAc(a1-3)]Gal(b1-3)GlcNAc(b1-2)Man(a1-6)]Man(b1-4)GlcNAc(b1-4)[Fuc(a1-6)]GlcNAc
# Summary of the method: as §1
# [30] = molecular target: Fuc(a1-2)[GalNAc(a1-3)]Gal(b1-3)GlcNAc(b1-3)GalNAc
# Summary of the method: as §1
# [31] = molecular target: Fuc(a1-2)[GalNAc(a1-3)]Gal(b1-3)GlcNAc(b1-6)GalNAc
# Summary of the method: as §1
# [32] = molecular target: Fuc(a1-2)[GalNAc(a1-3)]Gal(b1-4)Glc
# Summary of the method: as §1
# [33] = molecular target: Fuc(a1-2)[GalNAc(a1-3)]Gal(b1-4)GlcNAc
# Summary of the method: as §1
# [34] = molecular target: Fuc(a1-2)[GalNAc(a1-3)]Gal(b1-4)GlcNAc(b1-2)Man
# Summary of the method: as §1
# [35] = molecular target: Fuc(a1-2)[GalNAc(a1-3)]Gal(b1-4)GlcNAc(b1-2)Man(a1-3)[Fuc(a1-2)[GalNAc(a1-3)]Gal(b1-4)GlcNAc(b1-2)Man(a1-6)]Man(b1-4)GlcNAc(b1-4)GlcNAc
# Summary of the method: as §1
# [36] = molecular target: Fuc(a1-2)[GalNAc(a1-3)]Gal(b1-4)GlcNAc(b1-2)Man(a1-3)[Fuc(a1-2)[GalNAc(a1-3)]Gal(b1-4)GlcNAc(b1-2)Man(a1-6)]Man(b1-4)GlcNAc(b1-4)[Fuc(a1-6)]GlcNAc
# Summary of the method: as §1
# [37] = molecular target: Fuc(a1-2)[GalNAc(a1-3)]Gal(b1-4)GlcNAc(b1-3)Gal(b1-4)GlcNAc
# Summary of the method: as §1
# [38] = molecular target: Fuc(a1-2)[GalNAc(a1-3)]Gal(b1-4)GlcNAc(b1-3)Gal(b1-4)GlcNAc(b1-3)Gal(b1-4)GlcNAc
# Summary of the method: as §1
# [39] = molecular target: Fuc(a1-2)[GalNAc(a1-3)]Gal(b1-4)GlcNAc(b1-3)GalNAc
# Summary of the method: as §1
# [40] = molecular target: Fuc(a1-2)[GalNAc(a1-3)]Gal(b1-4)GlcNAc(b1-3)[Fuc(a1-2)[GalNAc(a1-3)]Gal(b1-4)GlcNAc(b1-6)]GalNAc
# Summary of the method: as §1
# [41] = molecular target: Fuc(a1-2)[GalNAc(a1-3)]Gal(b1-4)GlcNAc(b1-6)GalNAc
# Summary of the method: as §1
# [42] = molecular target: Fuc(a1-2)[GalNAc(a1-3)]Gal(b1-4)[Fuc(a1-3)]GlcNAc
# Summary of the method: as §1
# [43] = molecular target: Fuc(a1-2)[GalNAc(a1-3)]Gal(b1-4)[Fuc(a1-3)]GlcNAc(b1-3)GalNAc
# Summary of the method: as §1
# [44] = molecular target: Fuc(a1-2)[GalNAc(a1-4)]Gal(b1-4)GlcNAc
# Summary of the method: as §1
# [45] = molecular target: Fuc(a1-2)[GalNAc(b1-3)]Gal
# Summary of the method: as §1
binder,measurement,setting,value
B1,glycan array binding signal (z-score),[1],1.48
same,glycan array binding signal (z-score),[2],-0.515
same,glycan array binding signal (z-score),[3],-0.344
same,glycan array binding signal (z-score),[4],-0.484
same,glycan array binding signal (z-score),[5],-0.494
same,glycan array binding signal (z-score),[6],-0.514
same,glycan array binding signal (z-score),[7],1.09
same,glycan array binding signal (z-score),[8],-0.343
same,glycan array binding signal (z-score),[9],-0.462
same,glycan array binding signal (z-score),[10],-0.407
same,glycan array binding signal (z-score),[11],2.85
same,glycan array binding signal (z-score),[12],-0.023
same,glycan array binding signal (z-score),[13],-0.444
same,glycan array binding signal (z-score),[14],-0.185
same,glycan array binding signal (z-score),[15],-0.484
same,glycan array binding signal (z-score),[16],-0.281
same,glycan array binding signal (z-score),[17],-0.507
same,glycan array binding signal (z-score),[18],-0.356
same,glycan array binding signal (z-score),[19],-0.493
same,glycan array binding signal (z-score),[20],-0.481
same,glycan array binding signal (z-score),[21],-0.392
same,glycan array binding signal (z-score),[22],-0.481
same,glycan array binding signal (z-score),[23],-0.495
same,glycan array binding signal (z-score),[24],2.81
same,glycan array binding signal (z-score),[25],3.55
same,glycan array binding signal (z-score),[26],1.97
same,glycan array binding signal (z-score),[27],2.5
same,glycan array binding signal (z-score),[28],2.83
same,glycan array binding signal (z-score),[29],1.89
same,glycan array binding signal (z-score),[30],0.375
same,glycan array binding signal (z-score),[31],2.41
same,glycan array binding signal (z-score),[32],2.4
same,glycan array binding signal (z-score),[33],2.16
same,glycan array binding signal (z-score),[34],2.03
same,glycan array binding signal (z-score),[35],2.39
same,glycan array binding signal (z-score),[36],1.92
same,glycan array binding signal (z-score),[37],2.14
same,glycan array binding signal (z-score),[38],1.93
same,glycan array binding signal (z-score),[39],0.315
same,glycan array binding signal (z-score),[40],2.2
same,glycan array binding signal (z-score),[41],2.58
same,glycan array binding signal (z-score),[42],2.71
same,glycan array binding signal (z-score),[43],-0.402
same,glycan array binding signal (z-score),[44],3.15
same,glycan array binding signal (z-score),[45],2.42
